{"source": "PubChem BioAssay AID602310", "about": "(National Center for Advancing Translational Sciences (NCATS), 2012)", "note": "Out of some 410,000 compounds screened, about 310 (0.076%) were called active. This list was built around the results that the source calls inconclusive (neither active nor inactive); the mix of calls is not that of the screen. Calls come from the whole dose curve; as a rule, active = well fitted curve in the direction sought with a large enough effect; inconclusive = small, poorly fitted or top-dose-only effect; inactive = flat fitted curve, though single readings scatter. Where the call is inconclusive, the potency comes from a doubtful curve fit. % is set by controls: 0 for no effect and ±100 for the full control effect; potency is the fitted concentration of half-maximal effect; tags give direction and shape of the fitted curve.", "data": [{"target": "DNA dC->dU-editing enzyme APOBEC-3G (Homo sapiens) (UniProt Q9HC16)", "sequence (Q9HC16 whole entry, looked up)": "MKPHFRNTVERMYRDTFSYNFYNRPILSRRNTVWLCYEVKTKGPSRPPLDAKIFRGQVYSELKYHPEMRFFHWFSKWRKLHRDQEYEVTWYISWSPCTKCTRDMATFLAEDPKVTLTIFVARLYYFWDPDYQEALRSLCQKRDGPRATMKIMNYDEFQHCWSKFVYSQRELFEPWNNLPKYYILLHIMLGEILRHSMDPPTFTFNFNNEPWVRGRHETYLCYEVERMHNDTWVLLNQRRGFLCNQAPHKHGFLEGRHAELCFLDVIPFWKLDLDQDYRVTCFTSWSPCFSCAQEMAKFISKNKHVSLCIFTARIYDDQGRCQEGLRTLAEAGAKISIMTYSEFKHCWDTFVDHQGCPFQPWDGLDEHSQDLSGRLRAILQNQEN", "assay": "qHTS for Inhibitors of Vif-A3G Interactions: qHTS; note: nearly all actives have a fitted effect of over 60% in size;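 for activity, negative = active: hits raise eYFP signal because A3G escapes Vif-driven loss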", "conditions": "HeLa A3G-eYFP + Vif (tagged APOBEC3G with the HIV-1 protein that degrades it), YFP fluorescence, overnight; series mostly up to 46.1 µM; activity, negative = active: at the top concentration", "method_in_brief": "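Read-out is eYFP fluorescence (Ex 488/Em 500-530) from Vif-expressing HeLa A3G-eYFP cells; more signal means A3G escaped Vif-mediated degradation. Cells plated overnight, compound pinned in, incubated overnight at 37 deg C.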", "values": [{"smiles": "Cc1cc(NS(=O)(=O)c2ccc(NC(=O)c3cc(-c4cccnc4)nc4ccc(Cl)cc34)cc2)no1", "activity, negative = active": "inactive: 0.199%"}, {"smiles": "COc1ccc(OC)c(/C=C/c2nc3ccccc3[nH]c2=O)c1", "Potency": "inconclusive: 31.6 µM [inhibitor, single point]"}, {"smiles": "CCOC(=O)COc1ccc(Br)cc1/C=C\\c1[nH]c(=O)[nH]c(=O)c1[N+](=O)[O-]", "Potency": "inconclusive: 35.5 µM [inhibitor, single point]"}, {"smiles": "COc1ccc(N2CCCC2)c(NC(=O)c2ccc([N+](=O)[O-])o2)c1", "Potency": "inconclusive: 25.1 µM [inhibitor, single point]"}, {"smiles": "CN(C)c1ccc(/C=N/NC(=O)c2ccccc2Cl)cc1", "Potency": "active: 10 µM"}, {"smiles": "Cc1ccc(S(=O)(=O)Nc2nc3n(n2)C(c2ccccc2Cl)C=C(c2ccccc2)N3)cc1", "note": "(centres undefined)", "Potency": "inconclusive: 35.5 µM [inhibitor, partial curve, poor fit]"}, {"smiles": "CCN(CC)c1ccc(/C=N/N=C(N)N)c(O)c1", "Potency": "inconclusive: 7.08 µM [inhibitor, partial curve, poor fit]"}, {"smiles": "COc1cc(C2C3=C(COC3=O)OC(C)(C)Oc3cc4c(cc32)OCO4)cc(OC)c1OC", "note": "(centres undefined)", "Potency": "inconclusive: 0.562 µM [inhibitor, full curve, poor fit]"}, {"smiles": "CCOC(=O)c1ccc(-c2c(-c3ccccc3OC)sc3ccc(OC)cc23)cc1F", "Potency": "inconclusive: 20 µM [inhibitor, single point]"}, {"smiles": "OCc1ccc(O)c2ncccc12", "activity, negative = active": "inactive: -13.7%"}, {"smiles": "COc1ccc(NC(=O)C2Cc3c(-c4cccc(NC(C)=O)c4)ccnc3O2)cc1", "note": "(centres undefined)", "Potency": "inconclusive: 2.51 µM [inhibitor, full curve, poor fit]"}, {"smiles": "COc1ccc(C2=CC(c3cccc(C)c3)n3nnnc3N2)cc1", "note": "(centres undefined)", "Potency": "inconclusive: 35.5 µM [inhibitor, partial curve, poor fit]"}, {"smiles": "CCCc1nc2ccc(Cl)cn2c1Cc1ccccc1OC", "Potency": "inconclusive: 35.5 µM [inhibitor, single point]"}, {"smiles": "COc1ccc(C)cc1Nc1nc(C)nc2sc(C)cc12", "Potency": "inconclusive: 7.08 µM [inhibitor, partial curve]"}, {"smiles": "O=S(=O)(Nc1ccc(F)cc1Cl)c1ccc(-c2cnc(C3CC3)o2)cc1", "Potency": "inconclusive: 0.316 µM [inhibitor, full curve, poor fit]"}, {"smiles": "O=C(NCc1cccc(Br)c1)C1CC(c2ccccc2C(F)(F)F)=NO1", "note": "(centres undefined)", "Potency": "inconclusive: 7.94 µM [inhibitor, partial curve]"}, {"smiles": "Cc1[nH][nH]c(=O)c1C(c1c(C)[nH][nH]c1=O)c1cn(Cc2cccc3ccccc23)c2ccccc12", "Potency": "inconclusive: 22.4 µM [inhibitor, single point]"}, {"smiles": "CN(C1=C(N2CCOCC2)C(=O)c2ccccc2C1=O)c1ccccc1", "activity, negative = active": "inactive: 2.31%"}, {"smiles": "COc1ccc(S(=O)(=O)Nc2cccc3cccnc23)c([N+](=O)[O-])c1", "Potency": "inconclusive: 3.98 µM [inhibitor, full curve, poor fit]"}, {"smiles": "C=CC(=O)NC(NC(=O)C=C)c1ccc(Br)cc1", "Potency": "inconclusive: 25.1 µM [inhibitor, single point]"}, {"smiles": "COc1ccccc1NS(=O)(=O)c1cc([N+](=O)[O-])ccc1N/N=C/c1c(C)[nH]c2ccccc12", "Potency": "inconclusive: 2.82 µM [inhibitor, full curve]"}, {"smiles": "Clc1ccc2c(c1)CNc1c(ncnc1N1CCOCC1)O2", "Potency": "inconclusive: 25.1 µM [inhibitor, single point]"}, {"smiles": "O=C(Cc1ccc(NC(=O)N2CCCCc3ccccc32)cc1)NCc1ccccc1", "Potency": "inconclusive: 12.6 µM [inhibitor, partial curve, poor fit]"}, {"smiles": "COc1ccc(OC)c(NC(=O)CN2C(=O)C(C)N(c3ccc(C)cc3)C2=O)c1", "note": "(centres undefined)", "Potency": "inconclusive: 11.2 µM [inhibitor, partial curve, poor fit]"}, {"smiles": "CN(C)c1ccc(/C=C/c2ccnc3ccc(-c4ccccc4)cc23)cc1", "Potency": "active: 7.08 µM"}, {"smiles": "O=C(CCCn1c(=O)c2sccc2n(Cc2ccc(F)cc2)c1=O)NCc1ccco1", "Potency": "inconclusive: 12.6 µM [inhibitor, partial curve, poor fit]"}, {"smiles": "COc1ccccc1C1CC(c2ccccc2)Nc2ncnn21", "note": "(centres undefined)", "Potency": "inconclusive: 25.1 µM [inhibitor, single point]"}, {"smiles": "CCOC(=O)c1c(C)[nH]c(C(=O)OC/C(O)=C(\\C#N)c2nc3ccccc3[nH]2)c1C", "Potency": "inconclusive: 28.2 µM [inhibitor, single point]"}, {"smiles": "Cn1c(Sc2ccc(C(=O)O)cc2[N+](=O)[O-])nnc1-c1ccccc1", "activity, negative = active": "inactive: -1.28%"}, {"smiles": "O=c1[nH]c2cc3c(cc2cc1CN(Cc1ccco1)C(=S)NCC1CCCO1)OCCO3", "note": "(centres undefined)", "Potency": "inconclusive: 7.08 µM [inhibitor, partial curve, poor fit]"}, {"smiles": "CCOc1ccc(Br)cc1CNCCSc1nnnn1-c1ccccc1", "activity, negative = active": "inactive: -6.33%"}, {"smiles": "O=C(CSc1ccc(-c2ccco2)nn1)N1CCCC1", "activity, negative = active": "inactive: 1.64%"}, {"smiles": "CCc1ccc2[nH]c(=O)c(-c3ccccc3)c(O)c2c1", "activity, negative = active": "inactive: -12.7%"}, {"smiles": "CCc1ccc(CCC(=O)Nc2ncc(Cc3ccccc3Cl)s2)o1", "Potency": "inconclusive: 1.12 µM [inhibitor, full curve, poor fit]"}, {"smiles": "O=C(NN=Cc1ccc(O)c(O)c1)c1ccccc1", "activity, negative = active": "inactive: -8.09%"}, {"smiles": "CCCNS(=O)(=O)c1cccc(C(=O)OCc2cc(=O)oc3cc(OC)ccc23)c1", "Potency": "inconclusive: 1 µM [inhibitor, full curve, poor fit]"}, {"smiles": "COc1cc(/C=C2\\N=C3CCCCCN3C2=O)ccc1O", "activity, negative = active": "inactive: -1.43%"}, {"smiles": "N#CC1=C(N)n2c(s/c(=C\\c3cccs3)c2=O)=C(C#N)C1c1cccs1", "note": "(centres undefined)", "Potency": "inconclusive: 15.8 µM [inhibitor, partial curve, poor fit]"}, {"smiles": "Cc1cc(OCc2cc(C(=O)N(C)C3CCOC3)no2)cc(C)c1Cl", "note": "(centres undefined)", "Potency": "inconclusive: 35.5 µM [inhibitor, single point]"}, {"smiles": "CN(C(=O)c1cccc(C(=O)N(C)c2ccccc2)c1)c1ccccc1", "activity, negative = active": "inactive: 2.35%"}, {"smiles": "CC(C)(C)OC(=O)C[C@@H]1C/C=C\\C[C@H](CC(=O)N[C@H](CO)Cc2ccccc2)C(=O)N[C@H](Cc2ccccc2)COC1=O", "activity, negative = active": "inactive: 0.406%"}, {"smiles": "Cc1ccc(S(=O)(=O)CC(O)CN2CCCC2=O)cc1", "note": "(centres undefined)", "activity, negative = active": "inactive: -0.805%"}, {"smiles": "Cc1ccc(C(=O)c2cc([N+](=O)[O-])ccc2N2CCN(C)CC2)cc1", "Potency": "inconclusive: 4.47 µM [inhibitor, full curve]"}, {"smiles": "CCOC(=O)c1c(C)[nH]c(-c2csc(N)n2)c1C", "Potency": "inconclusive: 11.2 µM [inhibitor, partial curve, poor fit]"}, {"smiles": "Cc1ccc(C(=O)CC2(O)C(=O)N(Cc3ccccc3)c3ccc(Br)cc32)cc1", "note": "(centres undefined)", "Potency": "inconclusive: 35.5 µM [inhibitor, single point]"}, {"smiles": "O=C(O)c1ccccc1N/N=C/c1c(Sc2nnnn2-c2ccccc2)nc2ccccn2c1=O", "Potency": "inconclusive: 10 µM [inhibitor, partial curve, poor fit]"}, {"smiles": "COc1ccc(C(=O)Nc2ccc3[nH]ccc3c2)cc1", "Potency": "inconclusive: 15.8 µM [inhibitor, single point]"}, {"smiles": "Cc1cccc(-n2c(SCC(=O)Nc3ccccc3C)nc3c(oc4ccccc43)c2=O)c1", "activity, negative = active": "inactive: -3.82%"}, {"smiles": "CCOC(=O)C1(CCc2ccccc2)CCN(C(=O)CN2C(=O)CSC2=O)CC1", "Potency": "inconclusive: 6.31 µM [inhibitor, single point]"}, {"smiles": "COc1ccc(/C=C2\\SC(=Nc3ccccc3Cl)NC2=O)c(OC)c1", "Potency": "inconclusive: 2.82 µM [inhibitor, full curve, poor fit]"}, {"smiles": "COc1ccc(CCNC(=O)/C=C/c2ccco2)cc1", "activity, negative = active": "inactive: -4.68%"}, {"smiles": "Cc1ccc(-c2n[nH]c3c2C(c2cccs2)N(c2ccc(Cl)cc2)C3=O)cc1", "note": "(centres undefined)", "Potency": "inconclusive: 20 µM [inhibitor, single point]"}, {"smiles": "CCC(CC)C1C(C#N)=C(N)Oc2n[nH]c(-c3ccccc3)c21", "note": "(centres undefined)", "Potency": "inconclusive: 7.08 µM [inhibitor, full curve, poor fit]"}, {"smiles": "O=C(c1ccc2c(c1)N(Cc1ccc(Cl)cc1)C(=O)c1ccccc1S2(=O)=O)N1CCc2ccccc21", "activity, negative = active": "inactive: -3.71%"}, {"smiles": "CCC(C(=O)Nc1cccc(C#N)c1)n1nc(-c2ccccc2)ccc1=O", "note": "(centres undefined)", "activity, negative = active": "inactive: 1.91%"}, {"smiles": "Cc1cccc(NC(=S)NC(=O)CCc2ccccc2)c1C", "Potency": "inconclusive: 15.8 µM [inhibitor, single point]"}, {"smiles": "CCOC1=C2[C@H](c3ccccc3)N(S(=O)(=O)c3ccc(C)cc3)C(C(C)(C)C)[C@H]2C(C#N)(C#N)C(C#N)(C#N)C1", "note": "(some centres undefined)", "Potency": "inconclusive: 25.1 µM [inhibitor, single point]"}, {"smiles": "O=c1cc(-c2ccc([N+](=O)[O-])cc2)nc2cc(-c3ccc(F)cc3)[nH]n12", "activity, negative = active": "inactive: -5.11%"}, {"smiles": "CC(=O)n1cc(/C=N/NC(=O)c2sc(C)nc2C)c2ccccc21", "Potency": "inconclusive: 15.8 µM [inhibitor, partial curve, poor fit]"}, {"smiles": "Cc1ccc(/C=N/NC(=O)c2sccc2OCc2ccc(F)cc2)cc1", "Potency": "inconclusive: 2.24 µM [inhibitor, full curve, poor fit]"}, {"smiles": "CCN(CC)C(=O)c1sc2nc(-c3cccs3)cc(-c3ccc(Cl)cc3)c2c1N", "Potency": "inconclusive: 17.8 µM [inhibitor, partial curve, poor fit]"}, {"smiles": "CN(C)CCNc1ccc2ncn3c4ccc(O)cc4c(=O)c1c23", "Potency": "inconclusive: 17.8 µM [inhibitor, partial curve, poor fit]"}, {"smiles": "CN1C/C(=C/c2ccccc2[N+](=O)[O-])C(=O)/C(=C\\c2ccccc2[N+](=O)[O-])C1", "Potency": "inconclusive: 3.55 µM [inhibitor, full curve, poor fit]"}, {"smiles": "CCOc1ccc2[nH]c3c(N4CCC5(CC4)OCCO5)ncnc3c2c1", "Potency": "inconclusive: 11.2 µM [inhibitor, partial curve, poor fit]"}]}]}
